Of roughly 21,000 targets only a part is listed; those with the largest changes were picked by preference.
Compound: CC1Cc2ccccc2N1C(=O)C1CCCN(C1)C(=O)CCl (mixture of isomers) [TRIM25 ligand 11 (diastereomer mixture)]
Assay: probe-labelled cysteine peptide fold change vs DMSO (competition) (log2 fold change); higher = less target engagement (more negative = stronger competition)
Settings: THP-1, incubation time: 4 h
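Note: competitive chemoproteomic profiling in live THP-1 cells with an iodoacetamide desthiobiotin (IA-DTB) probe, comparing probe-labelled peptide intensities in compound-treated cells against DMSO-treated controls.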

Chain of UniProt O00410 (O00410 whole entry, looked up): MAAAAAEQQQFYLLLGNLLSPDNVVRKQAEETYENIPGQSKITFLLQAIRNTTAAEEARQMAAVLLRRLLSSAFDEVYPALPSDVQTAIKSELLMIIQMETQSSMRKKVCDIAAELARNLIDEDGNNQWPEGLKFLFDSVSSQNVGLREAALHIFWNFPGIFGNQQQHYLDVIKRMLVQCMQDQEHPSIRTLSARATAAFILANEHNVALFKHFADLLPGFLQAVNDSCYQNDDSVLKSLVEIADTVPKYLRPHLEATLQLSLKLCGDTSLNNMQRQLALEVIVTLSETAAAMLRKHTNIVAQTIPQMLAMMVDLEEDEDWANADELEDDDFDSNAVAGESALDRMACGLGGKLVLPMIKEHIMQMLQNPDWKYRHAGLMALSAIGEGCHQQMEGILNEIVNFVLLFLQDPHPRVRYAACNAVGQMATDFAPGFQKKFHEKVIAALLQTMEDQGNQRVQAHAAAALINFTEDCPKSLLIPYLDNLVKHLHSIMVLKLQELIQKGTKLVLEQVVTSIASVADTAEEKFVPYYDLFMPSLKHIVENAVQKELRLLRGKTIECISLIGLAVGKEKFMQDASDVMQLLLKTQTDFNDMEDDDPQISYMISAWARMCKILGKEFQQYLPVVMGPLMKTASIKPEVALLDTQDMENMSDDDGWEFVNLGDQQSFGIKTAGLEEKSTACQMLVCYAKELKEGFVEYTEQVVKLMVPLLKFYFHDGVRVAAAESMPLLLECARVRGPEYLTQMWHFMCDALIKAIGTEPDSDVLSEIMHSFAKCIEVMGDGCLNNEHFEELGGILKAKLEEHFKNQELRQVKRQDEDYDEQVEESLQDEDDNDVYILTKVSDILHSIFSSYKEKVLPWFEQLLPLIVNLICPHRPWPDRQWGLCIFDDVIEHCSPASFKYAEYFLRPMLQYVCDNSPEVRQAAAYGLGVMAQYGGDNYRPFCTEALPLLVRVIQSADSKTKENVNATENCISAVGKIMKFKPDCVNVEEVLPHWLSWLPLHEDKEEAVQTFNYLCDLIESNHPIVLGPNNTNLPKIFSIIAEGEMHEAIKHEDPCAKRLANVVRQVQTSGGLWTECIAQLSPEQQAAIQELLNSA

Question: With “IPO5_O00410_986_FKPDCVNVEEVLPHWLSWLPLHEDK (UniProt O00410)” as the target, how does the “probe-labelled cysteine peptide fold change” value (10 µM) read?
Answer: Its value is 0.215.

Question: What about the “probe-labelled cysteine peptide fold change” value (50 µM) of the same target?
Answer: Its value is 0.0732.

Reference: the supplement of paper PMC12067093, “Discovery and optimisation of a covalent ligand for TRIM25 and its application to targeted protein ubiquitination” (Chemical Science, 2025)
